Experimental findings from publication PMC4336329 (PLoS ONE, 2015) are described below.

About 14,000 (4.5%) of roughly 310,000 compounds showed an effect of 50% or more. The effect is printed as a negative number. Some of the results follow.
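Note: peak tail current of the secondary pulse compared with the same well before compound.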

For the assay, the target named is human ether-à-go-go-related gene (hERG) potassium channel (human, UniProt Q12809). Description: primary screen, population patch clamp on CHO cells stably expressing hERG.
Chain of human ether-à-go-go-related gene (hERG) potassium channel (Q12809 whole entry, looked up): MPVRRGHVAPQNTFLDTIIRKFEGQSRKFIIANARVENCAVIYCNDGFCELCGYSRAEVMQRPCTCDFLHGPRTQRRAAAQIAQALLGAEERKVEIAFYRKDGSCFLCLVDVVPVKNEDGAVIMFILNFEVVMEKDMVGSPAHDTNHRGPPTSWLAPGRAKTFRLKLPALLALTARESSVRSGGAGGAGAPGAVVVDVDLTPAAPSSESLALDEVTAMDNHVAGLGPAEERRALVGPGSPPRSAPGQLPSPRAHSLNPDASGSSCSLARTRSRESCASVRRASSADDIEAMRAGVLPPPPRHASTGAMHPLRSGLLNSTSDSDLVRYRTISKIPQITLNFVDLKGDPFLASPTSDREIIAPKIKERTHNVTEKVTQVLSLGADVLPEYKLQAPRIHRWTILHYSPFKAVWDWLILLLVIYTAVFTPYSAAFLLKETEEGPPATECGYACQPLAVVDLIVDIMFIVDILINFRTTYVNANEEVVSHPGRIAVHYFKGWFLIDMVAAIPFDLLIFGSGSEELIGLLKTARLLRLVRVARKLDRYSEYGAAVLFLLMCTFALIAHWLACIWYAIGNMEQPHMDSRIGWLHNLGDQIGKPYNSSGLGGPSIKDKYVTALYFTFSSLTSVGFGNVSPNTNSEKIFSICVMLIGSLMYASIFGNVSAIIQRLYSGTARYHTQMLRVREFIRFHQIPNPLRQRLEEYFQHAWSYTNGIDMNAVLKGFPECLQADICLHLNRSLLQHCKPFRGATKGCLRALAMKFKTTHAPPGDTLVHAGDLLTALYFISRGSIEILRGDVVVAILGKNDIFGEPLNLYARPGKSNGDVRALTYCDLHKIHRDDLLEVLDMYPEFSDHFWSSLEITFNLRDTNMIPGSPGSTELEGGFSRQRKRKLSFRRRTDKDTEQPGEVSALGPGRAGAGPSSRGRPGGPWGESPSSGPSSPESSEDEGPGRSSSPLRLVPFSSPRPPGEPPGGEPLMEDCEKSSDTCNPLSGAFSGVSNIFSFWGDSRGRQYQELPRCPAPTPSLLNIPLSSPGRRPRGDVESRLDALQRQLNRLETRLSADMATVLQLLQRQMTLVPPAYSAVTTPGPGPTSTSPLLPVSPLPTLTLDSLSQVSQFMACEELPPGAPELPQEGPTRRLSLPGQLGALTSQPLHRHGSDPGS
As for `O=CN1CCC(=O)N(Cc2ccccc2)c2ccccc21`, the “hERG current change (%, negative = inhibition) at 10uM” value was -4.26%. Take `CN1CCN(c2ccc([N+](=O)[O-])c(SCCO)c2)CC1`: the “hERG current change (%, negative = inhibition) at 10uM” value was -0.278%. As for `O=C(NCc1ccco1)C(=O)c1c[nH]c2ccccc12`, the “hERG current change (%, negative = inhibition) at 10uM” value is -3.84%. The result for `c1ccc2[nH]c(Cn3nnc4ccccc43)nc2c1` reads -3.46%.

Regarding `CCC1CCc2sc(C(=O)N(C)CC(=O)Nc3ccc(N4CCOCC4)cc3)cc2C1` (centres unmarked), the “hERG current change (%, negative = inhibition) at 10uM” value worked out at 7.7%. As for `N#CCCN1CCN(C2=NC(=O)/C(=C\c3cccs3)S2)CC1`, the “hERG current change (%, negative = inhibition) at 10uM” value is -52.4%.

Regarding `CN1CCN(C(=O)C23CCC(C)(c4nc5ccccc5nc42)C3(C)C)CC1` (centres unmarked), the “hERG current change (%, negative = inhibition) at 10uM” value was -53.3%.

For `CCOC(=O)c1c(C)[nH]c(C)c1S(=O)(=O)N(C)CC(=O)Nc1cccc(C)n1`, the “hERG current change (%, negative = inhibition) at 10uM” value is listed as -2.05%.

With `CC1CN(S(=O)(=O)c2ccc(C(=O)Nc3nnc(-c4ccco4)o3)cc2)CC(C)O1` (centres unmarked), the “hERG current change (%, negative = inhibition) at 10uM” value was determined as 13.2%. For the molecule `Cc1cc(Cl)cc(Cl)c1CNc1c([N+](=O)[O-])c(=O)oc2ccccc12`, the “hERG current change (%, negative = inhibition) at 10uM” value was determined as 8.42%. Then `Cc1ccc(NC(=O)c2ccc(S(=O)(=O)NCc3cccnc3)cc2)c(C)c1`, with 0.528%; and `COc1ccccc1NC(=O)OCC#CCOC(=O)Nc1ccccc1OC`, with 5.92%.

On to `Nc1cc(OC(=O)c2c(F)cccc2Cl)nn1S(=O)(=O)c1ccccc1`, for which the “hERG current change (%, negative = inhibition) at 10uM” value is reported as -3.02%. Then `CC1CC(OC(=O)c2ccccc2)CC(C)N1C.Cl` (centres unmarked), with -5.09%; and `CC(C)COc1ccc(C(=O)N/C(=C\c2cccc([N+](=O)[O-])c2)C(=O)O)cc1`, with 7.25%. Then `O=C1CCC(=O)N1c1ccccc1OS(=O)(=O)c1ccccc1`, with 24.7%; and `CN(C)c1ccc(C=C(C#N)C#N)cc1`, with -2.8%. Then `COCc1nnc(NC(=O)c2ccc(S(=O)(=O)N(C)c3ccccc3)cc2)o1`, with 14.6%; and `O=C1c2sc3nc4n(c(=O)c3c2CCC1Br)CCCCC4` (centres unmarked), with -3.25%; and `Cc1ccc(OCC(=O)Nc2sc3c(c2C#N)CCC3)cc1C`, with 3.62%.

With `COC(=O)c1ccc(NC(=O)Cn2c([N+](=O)[O-])cnc2C)cc1`, the “hERG current change (%, negative = inhibition) at 10uM” value is 1.23%. The result for `COc1cc(OC)nc(N/N=C(\c2ccccc2)c2ccncc2)n1` reads -18.1%; that for `CCc1ccc(N(C(=O)c2ccco2)C(C(=O)NC2CCCC2)c2ccncc2)cc1` (centres unmarked), -36.2%; that for `O=C(NCC(=O)N(CCc1ccccc1)C(C(=O)NC1CCCCC1)c1ccncc1)c1ccco1` (centres unmarked), -54.6%.

For the molecule `C/C(=N\NC(=O)C(=O)Nc1cc(C)ccc1C)c1ccncc1`, the “hERG current change (%, negative = inhibition) at 10uM” value is reported as 5.66%. The result for `CCOC(=O)Cn1nc(-c2ccc(F)cc2)oc1=O` reads -6.03%; that for `CC(C)[C@H]1COCCS(=O)(=O)N1Cc1ccccc1F`, 11.3%; that for `CCOC(=O)c1c(C)nc2c(c1-c1ccc(OC)cc1)C(=O)CC(C)(C)C2`, -18.5%. With `CSc1nc2ccccc2n1CC(=O)Nc1c(C)n(C)n(-c2ccccc2)c1=O`, the “hERG current change (%, negative = inhibition) at 10uM” value is on record as 9.75%. Then `CCOc1ccc(N2C(=O)c3cccnc3C2=O)cc1`, with 13.1%; and `COC(=O)[C@]1(CC(C)C)N[C@H](c2ccc(SC3CCCCC3)c(OC)c2)[C@@H]2C(=O)N(C)C(=O)[C@@H]21.O=C(O)C(F)(F)F`, with -27.5%; and `O=C(OCC#CCSc1nnc(-c2ccccc2)o1)c1ccco1`, with -29.2%. Then `c1ccc(C2CCC3(CC2)Oc2ccccc2C2CC(c4cccnc4)=NN23)cc1` (centres unmarked), with 2.99%; and `Cc1ccc2nc(-c3ccc(N4C(=NC(=O)CCC(=O)O)SC5CS(=O)(=O)CC54)cc3)sc2c1` (centres unmarked), with -19.3%; and `COc1cc2c(cc1NC(=O)C(C)NCc1ccccc1)oc1ccccc12` (centres unmarked), with 2.62%. Then `CN1CC(C(=O)c2ccccc2)C(C(=O)c2ccccc2)C1` (centres unmarked), with -21.4%. In the case of `COC(=O)c1cc(NC(=O)c2cccc([N+](=O)[O-])c2C)ccc1Cl`, the “hERG current change (%, negative = inhibition) at 10uM” value is on record as -5.8%. In the case of `NC(=S)Nc1cccc(Cl)c1`, the “hERG current change (%, negative = inhibition) at 10uM” value is reported as 19.1%.

On to `Cc1nc(SCc2ccccc2)nc2c1CCC2`, for which the “hERG current change (%, negative = inhibition) at 10uM” value is 4.66%. The result for `O=C(NC1CCCCCCC1)c1ccccc1-c1ccccc1` reads -7.73%; that for `C[C@@H]1CN=C2N(CCNC(=O)CCC3CCCCC3)[C@H](Cc3ccc(O)cc3)CN21`, -0.311%.

`O=[n+]1cc(-c2ccc(Cl)cc2)n([O-])c2c1CCC2`: the “hERG current change (%, negative = inhibition) at 10uM” value is 21.4%.

`O=C(N/N=C/c1cccnc1)c1cc(C2CC2)nc2ccccc12`: the “hERG current change (%, negative = inhibition) at 10uM” value amounted to 11.1%. Consider `CS(=O)(=O)N1CCN(c2ccc(NC(=O)CSc3ccc(Cl)cc3)cc2)CC1`, for which the “hERG current change (%, negative = inhibition) at 10uM” value is reported as -0.247%.
